The supplement of paper PMC8728848
This is one part of the list.

Assays:
Assay in all cases: glycan array binding signal (z-score within array); higher = stronger binding
Settings in all cases: glycan notation: IUPAC condensed, linker removed
Gal(b1-3)Gal = biological target: Gal(b1-3)Gal
Outline: (§1)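 Columns mapping to the same glycan were averaged after glycan names were converted to IUPAC-condensed notation. The data come from 3228 arrays in the Consortium for Functional Glycomics database, limited to those with an available protein sequence. Binding is reported as a within-array Z-score averaged across arrays of one protein sequence and across linkers.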

Gal(b1-3)Gal(b1-4)GlcNAc = biological target: Gal(b1-3)Gal(b1-4)GlcNAc
Outline: as §1

[1] = biological target: Gal(b1-3)Gal(b1-4)GlcNAc(b1-2)Man(a1-3)[Gal(b1-3)Gal(b1-4)GlcNAc(b1-2)Man(a1-6)]Man(b1-4)GlcNAc(b1-4)GlcNAc
Outline: as §1

Gal(b1-3)GalNAc = biological target: Gal(b1-3)GalNAc
Outline: as §1

[2] = biological target: Gal(b1-3)GalNAc(a1-3)[Fuc(a1-2)]Gal(b1-4)Glc
Outline: as §1

[3] = biological target: Gal(b1-3)GalNAc(a1-3)[Fuc(a1-2)]Gal(b1-4)GlcNAc
Outline: as §1

[4] = biological target: Gal(b1-3)GalNAc(b1-3)Gal(a1-4)Gal(b1-4)Glc
Outline: as §1

[5] = biological target: Gal(b1-3)GalNAc(b1-4)Gal(b1-4)Glc
Outline: as §1

[6] = biological target: Gal(b1-3)GalNAc(b1-4)[Neu5Ac(a2-3)]Gal(b1-4)Glc
Outline: as §1

Gal(b1-3)GlcNAc = biological target: Gal(b1-3)GlcNAc
Outline: as §1

[7] = biological target: Gal(b1-3)GlcNAc(b1-2)Man(a1-3)[Gal(b1-3)GlcNAc(b1-2)Man(a1-6)]Man(b1-4)GlcNAc(b1-4)GlcNAc
Outline: as §1

[8] = biological target: Gal(b1-3)GlcNAc(b1-2)Man(a1-3)[Gal(b1-3)GlcNAc(b1-2)Man(a1-6)]Man(b1-4)GlcNAc(b1-4)[Fuc(a1-6)]GlcNAc
Outline: as §1

[9] = biological target: Gal(b1-3)GlcNAc(b1-3)Gal(b1-3)GlcNAc
Outline: as §1

[10] = biological target: Gal(b1-3)GlcNAc(b1-3)Gal(b1-4)Glc
Outline: as §1

[11] = biological target: Gal(b1-3)GlcNAc(b1-3)Gal(b1-4)GlcNAc
Outline: as §1

[12] = biological target: Gal(b1-3)[Fuc(a1-4)]GlcNAc
Outline: as §1

[13] = biological target: Gal(b1-3)[Fuc(a1-4)]GlcNAc(b1-2)Man(a1-3)[Gal(b1-3)[Fuc(a1-4)]GlcNAc(b1-2)Man(a1-6)]Man(b1-4)GlcNAc(b1-4)GlcNAc
Outline: as §1

[14] = biological target: Gal(b1-3)[Fuc(a1-4)]GlcNAc(b1-2)Man(a1-3)[Gal(b1-3)[Fuc(a1-4)]GlcNAc(b1-2)Man(a1-6)]Man(b1-4)GlcNAc(b1-4)[Fuc(a1-6)]GlcNAc
Outline: as §1

[15] = biological target: Gal(b1-3)[Fuc(a1-4)]GlcNAc(b1-3)Gal(b1-3)[Fuc(a1-4)]GlcNAc
Outline: as §1

[16] = biological target: Gal(b1-3)[Fuc(a1-4)]GlcNAc(b1-3)Gal(b1-4)GlcNAc
Outline: as §1

[17] = biological target: Gal(b1-3)[Fuc(a1-4)]GlcNAc(b1-3)Gal(b1-4)[Fuc(a1-3)]GlcNAc
Outline: as §1

[18] = biological target: Gal(b1-3)[GlcNAc(b1-6)]GalNAc
Outline: as §1

[19] = biological target: Gal(b1-3)[Neu5Ac(a2-6)]GalNAc
Outline: as §1

[20] = biological target: Gal(b1-3)[Neu5Ac(a2-6)]GlcNAc(b1-6)Gal(b1-4)Glc
Outline: as §1

[21] = biological target: Gal(b1-3)[Neu5Ac(b2-6)]GalNAc
Outline: as §1

[22] = biological target: Gal(b1-4)GalNAc(a1-3)[Fuc(a1-2)]Gal(b1-4)GlcNAc
Outline: as §1

[23] = biological target: Gal(b1-4)GalNAc(b1-3)[Fuc(a1-2)]Gal(b1-4)GlcNAc
Outline: as §1

Gal(b1-4)Glc = biological target: Gal(b1-4)Glc
Outline: as §1

Gal(b1-4)Glc6S = biological target: Gal(b1-4)Glc6S
Outline: as §1

Gal(b1-4)GlcNAc = biological target: Gal(b1-4)GlcNAc
Outline: as §1

[24] = biological target: Gal(b1-4)GlcNAc(a1-6)Gal(b1-4)GlcNAc
Outline: as §1

[25] = biological target: Gal(b1-4)GlcNAc(b1-2)Man(a1-3)Man(b1-4)GlcNAc(b1-4)GlcNAc
Outline: as §1

[26] = biological target: Gal(b1-4)GlcNAc(b1-2)Man(a1-3)[Gal(b1-4)GlcNAc(b1-2)Man(a1-6)]Man(b1-4)GlcNAc(b1-4)GlcNAc
Outline: as §1

[27] = biological target: Gal(b1-4)GlcNAc(b1-2)Man(a1-3)[Gal(b1-4)GlcNAc(b1-2)Man(a1-6)]Man(b1-4)GlcNAc(b1-4)[Fuc(a1-6)]GlcNAc
Outline: as §1

[28] = biological target: Gal(b1-4)GlcNAc(b1-2)Man(a1-3)[Man(a1-6)]Man(b1-4)GlcNAc(b1-4)GlcNAc
Outline: as §1

[29] = biological target: Gal(b1-4)GlcNAc(b1-2)Man(a1-6)Man(b1-4)GlcNAc(b1-4)GlcNAc
Outline: as §1

[30] = biological target: Gal(b1-4)GlcNAc(b1-2)Man(a1-6)[Man(a1-3)]Man(b1-4)GlcNAc(b1-4)GlcNAc
Outline: as §1

B1: Spy0252 (Streptococcus pyogenes), Q9A1I9_STRP1 (protein)
chain: MNMKKLASLAMLGASVLGLAACGGKSQKEAGASKSDTAKTEITWWAFPVFTQEKAEDGVGTYEKKLIAAFEKANPEIKVKLETIDFTSGPEKITTAIEAGTAPDVLFDAPGRIIQYGKNGKLADLNDLFTEEFTKDVNNDKLIQASKAGDTAYMYPISSAPFYMALNKKMLKDAGVLDLVKEGWTTDDFEKVLKALKDKGYNPGSFFANGQGGDQGPRAFFANLYSSHITDDKVTKYTTDDANSIKAMTKISNWIKDGLMMNGSQYDGSADIQNFANGQTSFTILWAPAQPGIQAKLLEASKVDYLEIPFPSDDGKPELEYLVNGFAVFNNKDEQKVAASKTFIQFIADDKEWGPKNVVRTGAFPVRTSYGDLYKDKRMEKIAEWTKFYSPYYNTIDGFAEMRTLWFPMVQAVSNGDEKPEDALKAFTEKANKTIKKTQ
glycan array binding signal (z-score) (Gal(b1-3)Gal): -0.008 | glycan array binding signal (z-score) (Gal(b1-3)Gal(b1-4)GlcNAc): 0.413 | glycan array binding signal (z-score) [1]: -0.136 | glycan array binding signal (z-score) (Gal(b1-3)GalNAc): -0.232 | glycan array binding signal (z-score) [2]: -0.262 | glycan array binding signal (z-score) [3]: -0.187 | glycan array binding signal (z-score) [4]: 2.83 | glycan array binding signal (z-score) [5]: 0.638 | glycan array binding signal (z-score) [6]: -0.25 | glycan array binding signal (z-score) (Gal(b1-3)GlcNAc): -0.267 | glycan array binding signal (z-score) [7]: 0.073 | glycan array binding signal (z-score) [8]: 0.005 | glycan array binding signal (z-score) [9]: -0.215 | glycan array binding signal (z-score) [10]: -0.256 | glycan array binding signal (z-score) [11]: -0.267 | glycan array binding signal (z-score) [12]: -0.271 | glycan array binding signal (z-score) [13]: 1.86 | glycan array binding signal (z-score) [14]: 0.612 | glycan array binding signal (z-score) [15]: -0.211 | glycan array binding signal (z-score) [16]: -0.266 | glycan array binding signal (z-score) [17]: -0.263 | glycan array binding signal (z-score) [18]: -0.252 | glycan array binding signal (z-score) [19]: -0.262 | glycan array binding signal (z-score) [20]: -0.265 | glycan array binding signal (z-score) [21]: -0.266 | glycan array binding signal (z-score) [22]: -0.085 | glycan array binding signal (z-score) [23]: -0.214 | glycan array binding signal (z-score) (Gal(b1-4)Glc): 0.749 | glycan array binding signal (z-score) (Gal(b1-4)Glc6S): 1.82 | glycan array binding signal (z-score) (Gal(b1-4)GlcNAc): -0.269 | glycan array binding signal (z-score) [24]: -0.254 | glycan array binding signal (z-score) [25]: -0.272 | glycan array binding signal (z-score) [26]: -0.269 | glycan array binding signal (z-score) [27]: -0.211 | glycan array binding signal (z-score) [28]: -0.244 | glycan array binding signal (z-score) [29]: -0.272 | glycan array binding signal (z-score) [30]: -0.242
